# Results as given in PMC7819943, “Rice protein-binding microarrays: a tool to detect cis-acting elements near promoter regions in rice”.
# This is one part of the list.
# Molecular target: T1, OsWOX13 (Oryza sativa, UniProt Q5QMM3 1-267)
# T1 sequence: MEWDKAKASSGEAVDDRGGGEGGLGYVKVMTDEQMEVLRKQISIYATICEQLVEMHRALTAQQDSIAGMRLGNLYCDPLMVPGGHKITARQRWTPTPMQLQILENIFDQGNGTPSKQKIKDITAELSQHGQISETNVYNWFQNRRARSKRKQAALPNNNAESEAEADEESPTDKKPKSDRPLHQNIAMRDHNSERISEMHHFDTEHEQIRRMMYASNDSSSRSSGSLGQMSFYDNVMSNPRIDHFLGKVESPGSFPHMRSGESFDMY
# Assay: protein-binding microarray (RPBM); PBS, 2% BSA, 51.3 ng/ul salmon testes DNA, 50 uM zinc acetate, 200 nM TF, 25 C, 1 h; high values mean tight binding
# Details: protein: recombinant; tags: N-terminal polyhistidine and DsRed monomer fusion (pET32a); label: CyDye5-dUTP incorporated in the synthesized complementary strand; 3' TTTTT single-stranded linker to array surface; dsDNA, one strand shown
# Procedure, shortened: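 Ni–NTA purification followed expression in E. coli BL21-CodonPlus of transcription factors fused N-terminally to a polyhistidine tag and DsRed. At 200 nM in PBS with 2% BSA, salmon testes DNA and 50 µM zinc acetate, the protein was incubated for 1 h at 25 °C with a custom Agilent array that had been primer-extended with Cy5-dUTP and blocked with 2% BSA. After washing, the array was read on an Axon 4000B scanner. The binding signal is per-feature fluorescence intensity in arbitrary units.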
row,Sequence,binding signal
1,AATAAATGAACATTATATTTTCAAATTTAATTCGCTGCTTCGGAGTCACCTAGTGCAG,9520 fluorescence intensity (a.u.)
2,CTAATGAAATGATTGGTCCACGAGACAGAGCCACCGACCGCGGAGTCACCTAGTGCAG,31900 fluorescence intensity (a.u.)
3,CTCATGATTAAGGCTTTATTCAGAGGCACTTACTGTTGTACGGAGTCACCTAGTGCAG,11600 fluorescence intensity (a.u.)
4,AATTATTAATTTTACCAAATTAATGGTATGGTTTAAAATGCGGAGTCACCTAGTGCAG,33200 fluorescence intensity (a.u.)
5,CTAATTTTAACGTGAACTAAATATACCCTCAATTAAACTTCGGAGTCACCTAGTGCAG,5580 fluorescence intensity (a.u.)
6,TTTTGATTGGGCCGATCTCTAGCCCATATATACGTGTAGGCGGAGTCACCTAGTGCAG,29300 fluorescence intensity (a.u.)
7,GGTGGATGAGAATGGATTGAATGAAAACAACAACATATTACGGAGTCACCTAGTGCAG,7970 fluorescence intensity (a.u.)
8,ACCAAATTTTGACAATATCAAAATTTTAATAAGTTGGCAACGGAGTCACCTAGTGCAG,7990 fluorescence intensity (a.u.)
9,AACTAATTGGTGAACGGTTGCTCGCAGAACCATTAATTGACGGAGTCACCTAGTGCAG,22500 fluorescence intensity (a.u.)
10,GACTAACCTGCCTAATTGTCACAGGTCCCACTAGTTCTTGCGGAGTCACCTAGTGCAG,3440 fluorescence intensity (a.u.)
11,GCTGACGAGCTCAAGCATAGCCTCCATTACGGACACGCCTCGGAGTCACCTAGTGCAG,3210 fluorescence intensity (a.u.)
12,CTGAGACAAATAATGACAATAATTTGTCTACAATCAATCCCGGAGTCACCTAGTGCAG,16600 fluorescence intensity (a.u.)
13,ATTAATTACCAGGTTTGTTATCGCATTCGAGGATGTGCACCGGAGTCACCTAGTGCAG,24300 fluorescence intensity (a.u.)
14,GCAAATTGAAATGAACTTAATCCTAAACTTTTCCTAGTACCGGAGTCACCTAGTGCAG,40800 fluorescence intensity (a.u.)
15,TAATAACTTATACTGATATTGATTACTCCCTCCATCCCTACGGAGTCACCTAGTGCAG,11800 fluorescence intensity (a.u.)
16,AACTGATTAATGGCGTTTGTAATTATTCTAGATGGAGAGGCGGAGTCACCTAGTGCAG,44400 fluorescence intensity (a.u.)
17,TCGAAATGATTTCAGTGAATTTCGTTCAAAATTCGACACACGGAGTCACCTAGTGCAG,4410 fluorescence intensity (a.u.)
18,CTGATTAATTGACCCACCGACTAAACTTGCACAGTCACCACGGAGTCACCTAGTGCAG,50500 fluorescence intensity (a.u.)
19,CAAAACAAATTACAGATTGCGCATGTAAACTACGAGACGACGGAGTCACCTAGTGCAG,19900 fluorescence intensity (a.u.)
20,GAGATTGAAGAGAAGGCAAAATCTTTAGCAACCTGCACTTCGGAGTCACCTAGTGCAG,15900 fluorescence intensity (a.u.)
21,ATTTATAAACATAATCAGTTTAGATAGTATAGATAGTAGCCGGAGTCACCTAGTGCAG,3220 fluorescence intensity (a.u.)

row,Sequence,binding signal
1,ACTCTTAATTAATGAGTTGATGATGTTGACTAAATTAAGGCGGAGTCACCTAGTGCAG,27700 fluorescence intensity (a.u.)
2,AACCAATCAACCAACCAAAGCAGCAGCATTCGTGGTGGTGCGGAGTCACCTAGTGCAG,11300 fluorescence intensity (a.u.)
3,AGCGGTCTATTAGCGCGTGATTAATTAAGTATTAGCTTTTCGGAGTCACCTAGTGCAG,5450 fluorescence intensity (a.u.)
4,CTGGTATTGATTTCATATTCAAACCAACGTGCTTTCGACCCGGAGTCACCTAGTGCAG,7640 fluorescence intensity (a.u.)
5,GCCTAACATACATAACGGGTTAAACAGAAAGCCTCTTACACGGAGTCACCTAGTGCAG,5430 fluorescence intensity (a.u.)
6,AGATAGATAAATTGATGATAAAAGAACCGATCAGCCAATACGGAGTCACCTAGTGCAG,27400 fluorescence intensity (a.u.)
7,CTATCTTAATTAGCTTCTTTATCTCTGTCTCAGTAGTGCACGGAGTCACCTAGTGCAG,20900 fluorescence intensity (a.u.)
8,AAATAATTAGTATATATTCCCTCTATTCTTTTATATGTGACGGAGTCACCTAGTGCAG,21900 fluorescence intensity (a.u.)
9,CTGATGCATGATTGAAACAGCTAAGAACTTTATCAAATTCCGGAGTCACCTAGTGCAG,18300 fluorescence intensity (a.u.)
10,ACTTGAGGATGTGAAGATGATTGGTTAGGTACAGTGTTTGCGGAGTCACCTAGTGCAG,13400 fluorescence intensity (a.u.)
11,AGTTTTGGGTCATTGATTTATTTAGCATCGAAGCACATAACGGAGTCACCTAGTGCAG,5820 fluorescence intensity (a.u.)
12,GACTTGACTAATTGATTTGTGTAGATTTCTAAAAGCAAGGCGGAGTCACCTAGTGCAG,58600 fluorescence intensity (a.u.)
13,ATGATTTTCTTAAGTTTAATTTGACTCCAAATAATTGCATCGGAGTCACCTAGTGCAG,16600 fluorescence intensity (a.u.)
14,TTCCAGGTTAAATTGACATGTAAGTGCTACGTCAATGCCACGGAGTCACCTAGTGCAG,23000 fluorescence intensity (a.u.)
15,GTCACAAATCACAATAAAGTAACAGCAAATGAGGATCGGGCGGAGTCACCTAGTGCAG,5220 fluorescence intensity (a.u.)
16,GTTAATTAATTAGTTAGTACTAGCAAACATTGGCTAAAGTCGGAGTCACCTAGTGCAG,55900 fluorescence intensity (a.u.)
17,ATACTTAACCCACAGCTTATAGATTGAATGACTCTTCAATCGGAGTCACCTAGTGCAG,24300 fluorescence intensity (a.u.)
18,TTAATTTGTTTTCACGTATGGTTGTGTTGCCCGCTTGGAACGGAGTCACCTAGTGCAG,4930 fluorescence intensity (a.u.)
19,GCAGGTATTGACAGTCAAATATTATAATTTGGGTATGCCGCGGAGTCACCTAGTGCAG,15800 fluorescence intensity (a.u.)
20,GTCGATTATTAAACTCTCCCTAATTGACCTTAGTGTTGTCCGGAGTCACCTAGTGCAG,16900 fluorescence intensity (a.u.)
21,CCGTGATTGAGGCCCATCCAAATGTCTCTGGGCCATCCGCCGGAGTCACCTAGTGCAG,28900 fluorescence intensity (a.u.)
